According to the supplement of paper PMC9151546:
Most values come without repeats; read them as rough.

Key:
CHO-K1 [1] = assay: micronucleus frequency (% of nucleated events); higher = more micronuclei (genotoxic)
CHO-K1 [2] = assay: hypodiploid nuclei frequency (% of nucleated events); higher = more hypodiploid events (aneugenic)
Experimental: (§1)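 Flow-cytometric in vitro micronucleus assay (Litron MicroFlow) in CHO-K1 cells in 96-well plates, 19 concentrations (4.5-200 µM, n=1 per concentration). Without S9, cells were exposed for 24 h and sampled at 48 h. With Aroclor 1254-induced rat liver S9, cells were exposed for 3-4 h and sampled at 27-28 h. Read-outs are %MN and %hypodiploid nuclei relative to nucleated events, and relative survival as the nuclei-to-bead ratio versus the 1% DMSO vehicle control (x100).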

CHO-K1 [3] = assay: relative survival (nuclei to bead ratio vs DMSO control) (% of vehicle control); higher = more surviving cells
Experimental: as §1
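For hypodiploid nuclei frequency (% of nucleated events) in this document: hypodiploid nuclei gated on a flow cytometer with 488 nm excitation after SYTOX Green staining, cultures at 37 °C, positive controls vinblastine without S9 and cyclophosphamide with S9.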
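For micronucleus frequency (% of nucleated events) in this document: cells lysed with nuclei stained by SYTOX Green, then micronucleus-gated events counted against nucleated events by flow cytometry with 488 nm excitation.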
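For relative survival (nuclei to bead ratio vs DMSO control) in this document: Lysed-cell nuclei stained with SYTOX Green and counted against counting beads by flow cytometry at 488 nm excitation, with vinblastine (no S9) and cyclophosphamide (plus S9) as positive controls.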

Cc1cccc(C)c1O [2,6-Dimethylphenol]
Settings	hypodiploid nuclei frequency, CHO-K1 [2] [%]	micronucleus frequency, CHO-K1 [1] [%]	relative survival, CHO-K1 [3]
concentration: 4.5 (µM), S9 metabolic activation: with S9, exposure time: 3-4 hours	0.3	1.74	111
concentration: 4.5 (µM), S9 metabolic activation: without S9, exposure time: 24 hours	0.54	1.6	71.6
concentration: 5.63 (µM), S9 metabolic activation: with S9, exposure time: 3-4 hours	0.22	1.2	116
concentration: 5.63 (µM), S9 metabolic activation: without S9, exposure time: 24 hours	0.74	1.54	77.2
concentration: 7.04 (µM), S9 metabolic activation: with S9, exposure time: 3-4 hours	0.1	1.46	104
concentration: 7.04 (µM), S9 metabolic activation: without S9, exposure time: 24 hours	0.56	1.48	74.3
concentration: 8.8 (µM), S9 metabolic activation: with S9, exposure time: 3-4 hours	0.38	2.02	104
concentration: 8.8 (µM), S9 metabolic activation: without S9, exposure time: 24 hours	0.74	2.12	85.5
concentration: 11 (µM), S9 metabolic activation: with S9, exposure time: 3-4 hours	0.3	1.64	100
concentration: 11 (µM), S9 metabolic activation: without S9, exposure time: 24 hours	0.74	2.04	95.3
concentration: 13.7 (µM), S9 metabolic activation: with S9, exposure time: 3-4 hours	0.24	1.14	97.4
concentration: 13.7 (µM), S9 metabolic activation: without S9, exposure time: 24 hours	0.8	1.86	66.3
concentration: 17.2 (µM), S9 metabolic activation: with S9, exposure time: 3-4 hours	0.34	1.64	97.2
concentration: 17.2 (µM), S9 metabolic activation: without S9, exposure time: 24 hours	0.68	2.06	82.6
concentration: 21.5 (µM), S9 metabolic activation: with S9, exposure time: 3-4 hours	0.18	1.42	118
concentration: 21.5 (µM), S9 metabolic activation: without S9, exposure time: 24 hours	0.6	1.88	98.7
concentration: 26.8 (µM), S9 metabolic activation: with S9, exposure time: 3-4 hours	0.24	1.94	120
concentration: 26.8 (µM), S9 metabolic activation: without S9, exposure time: 24 hours	0.56	1.56	77.2
concentration: 33.6 (µM), S9 metabolic activation: with S9, exposure time: 3-4 hours	0.3	1.62	114
concentration: 33.6 (µM), S9 metabolic activation: without S9, exposure time: 24 hours	0.64	1.64	91.4
concentration: 41.9 (µM), S9 metabolic activation: with S9, exposure time: 3-4 hours	0.44	1.86	128
concentration: 41.9 (µM), S9 metabolic activation: without S9, exposure time: 24 hours	0.68	1.26	85.5
concentration: 52.4 (µM), S9 metabolic activation: with S9, exposure time: 3-4 hours	0.18	1.82	116
concentration: 52.4 (µM), S9 metabolic activation: without S9, exposure time: 24 hours	0.68	1.44	87.3
concentration: 65.5 (µM), S9 metabolic activation: with S9, exposure time: 3-4 hours	0.12	2.2	126
concentration: 65.5 (µM), S9 metabolic activation: without S9, exposure time: 24 hours	0.74	2.04	89.7
concentration: 81.9 (µM), S9 metabolic activation: with S9, exposure time: 3-4 hours	0.3	1.76	123
concentration: 81.9 (µM), S9 metabolic activation: without S9, exposure time: 24 hours	0.86	2.8	114
concentration: 102 (µM), S9 metabolic activation: with S9, exposure time: 3-4 hours	0.18	1.58	116
concentration: 102 (µM), S9 metabolic activation: without S9, exposure time: 24 hours	1.18	2.34	84.4
concentration: 128 (µM), S9 metabolic activation: with S9, exposure time: 3-4 hours	0.22	1.58	96.1
concentration: 128 (µM), S9 metabolic activation: without S9, exposure time: 24 hours	1	2.3	83
concentration: 160 (µM), S9 metabolic activation: with S9, exposure time: 3-4 hours	0.16	1.36	114
concentration: 160 (µM), S9 metabolic activation: without S9, exposure time: 24 hours	1.04	2.56	92.2
concentration: 200 (µM), S9 metabolic activation: with S9, exposure time: 3-4 hours	0.32	1.38	111
concentration: 200 (µM), S9 metabolic activation: without S9, exposure time: 24 hours	1.1	2.62	81.3

Clc1ccc(C(c2ccc(Cl)cc2)C(Cl)(Cl)Cl)cc1 [p,p'-DDT]
Settings	hypodiploid nuclei frequency, CHO-K1 [2] [%]	micronucleus frequency, CHO-K1 [1] [%]	relative survival, CHO-K1 [3]
concentration: 4.5 (µM), S9 metabolic activation: with S9, exposure time: 3-4 hours	0.26	1.1	122
concentration: 4.5 (µM), S9 metabolic activation: without S9, exposure time: 24 hours	0.32	2.26	87.3
concentration: 5.63 (µM), S9 metabolic activation: with S9, exposure time: 3-4 hours	0.24	1.04	108
concentration: 5.63 (µM), S9 metabolic activation: without S9, exposure time: 24 hours	0.58	1.94	85.3
concentration: 7.04 (µM), S9 metabolic activation: with S9, exposure time: 3-4 hours	0.24	0.94	92.8
concentration: 7.04 (µM), S9 metabolic activation: without S9, exposure time: 24 hours	0.5	1.92	77.8
concentration: 8.8 (µM), S9 metabolic activation: with S9, exposure time: 3-4 hours	0.2	1.28	98.6
concentration: 8.8 (µM), S9 metabolic activation: without S9, exposure time: 24 hours	0.48	2.28	83.3
concentration: 11 (µM), S9 metabolic activation: with S9, exposure time: 3-4 hours	0.24	1.16	126
concentration: 11 (µM), S9 metabolic activation: without S9, exposure time: 24 hours	0.4	2.02	101
concentration: 13.7 (µM), S9 metabolic activation: with S9, exposure time: 3-4 hours	0.2	1.04	143
concentration: 13.7 (µM), S9 metabolic activation: without S9, exposure time: 24 hours	0.32	2.14	79.5
concentration: 17.2 (µM), S9 metabolic activation: with S9, exposure time: 3-4 hours	0.22	1.32	125
concentration: 17.2 (µM), S9 metabolic activation: without S9, exposure time: 24 hours	0.6	3.42	68.2
concentration: 21.5 (µM), S9 metabolic activation: with S9, exposure time: 3-4 hours	0.26	1	97
concentration: 21.5 (µM), S9 metabolic activation: without S9, exposure time: 24 hours	0.4	1.9	86.3
concentration: 26.8 (µM), S9 metabolic activation: with S9, exposure time: 3-4 hours	0.08	1.24	74
concentration: 26.8 (µM), S9 metabolic activation: without S9, exposure time: 24 hours	0.4	1.14	82
concentration: 33.6 (µM), S9 metabolic activation: with S9, exposure time: 3-4 hours	0.18	1.04	95.7
concentration: 33.6 (µM), S9 metabolic activation: without S9, exposure time: 24 hours	0.52	0.98	86.3
concentration: 41.9 (µM), S9 metabolic activation: with S9, exposure time: 3-4 hours	0.16	1.1	89.8
concentration: 41.9 (µM), S9 metabolic activation: without S9, exposure time: 24 hours	0.64	1.98	65.6
concentration: 52.4 (µM), S9 metabolic activation: with S9, exposure time: 3-4 hours	0.1	1.44	97.5
concentration: 52.4 (µM), S9 metabolic activation: without S9, exposure time: 24 hours	0.56	1.84	71.8
concentration: 65.5 (µM), S9 metabolic activation: with S9, exposure time: 3-4 hours	0.24	1.66	99.5
concentration: 65.5 (µM), S9 metabolic activation: without S9, exposure time: 24 hours	0.68	2	56
concentration: 81.9 (µM), S9 metabolic activation: with S9, exposure time: 3-4 hours	0.16	1.3	90.6
concentration: 81.9 (µM), S9 metabolic activation: without S9, exposure time: 24 hours	0.5	2.6	52.3
concentration: 102 (µM), S9 metabolic activation: with S9, exposure time: 3-4 hours	0.22	1.12	83.3
concentration: 102 (µM), S9 metabolic activation: without S9, exposure time: 24 hours	0.64	3.5	53.8
concentration: 128 (µM), S9 metabolic activation: with S9, exposure time: 3-4 hours	0.52	2.03	55.4
concentration: 128 (µM), S9 metabolic activation: without S9, exposure time: 24 hours	0.35	5.04	48.5
concentration: 160 (µM), S9 metabolic activation: with S9, exposure time: 3-4 hours	0.27	1.33	43.4
concentration: 160 (µM), S9 metabolic activation: without S9, exposure time: 24 hours	–	–	18.4
concentration: 200 (µM), S9 metabolic activation: with S9, exposure time: 3-4 hours	0.3	7.57	47.1
concentration: 200 (µM), S9 metabolic activation: without S9, exposure time: 24 hours	–	–	7.27
